Consider 5 molecules from publication PMC9100884, “Semi-Synthesis of N-Aryl Amide Analogs of Piperine from Piper nigrum and Evaluation of Their Antitrypanosomal, Antimalarial, and Anti-SARS-CoV-2 Main Protease Activities” (Molecules, 2022).

For the experiment, the target named is SARS-CoV-2 3C-like main protease (3CLPro) (Severe acute respiratory syndrome coronavirus 2, UniProt P0DTD1). The experiment in a line: SARS-CoV-2 3CLPro activity assay with fluorogenic substrate. The experiment is classed as biochemical. The settings on record: for Relative Protease Activity at 100 μM (%RFU/s ± S.D.): compound at 100 μM, relative to initial rate without inhibitor, 0.2 μM 3CLPro; for inhibition at 100 µM: read-out: inhibition toward 3CLPro.

Structures are written as SMILES.

For `O=C(/C=C/C=C/c1ccc2c(c1)OCO2)Nc1ccccc1` [Compound 3, (2E,4E)-5-(benzo[d][1,3]dioxol-5-yl)-N-phenylpenta-2,4-dienamide], the “Relative Protease Activity at 100 μM (%RFU/s ± S.D.)” value amounted to 55.1 ± 1.1 %RFU/s.
With `COc1ccc(NC(=O)/C=C/C=C/c2ccc3c(c2)OCO3)c(OC)c1` [Compound 4, (2E,4E)-5-(benzo[d][1,3]dioxol-5-yl)-N-(2,4-dimethoxyphenyl)penta-2,4-dienamide], the “Relative Protease Activity at 100 μM (%RFU/s ± S.D.)” value was 69.0 ± 6.1 %RFU/s.
As for `COc1ccc(OC)c(NC(=O)/C=C/C=C/c2ccc3c(c2)OCO3)c1` [Compound 5, (2E,4E)-5-(benzo[d][1,3]dioxol-5-yl)-N-(2,5-dimethoxyphenyl)penta-2,4-dienamide], the midpoint of inhibition, the IC50, lay at 107 ± 1.2 µM; the inhibition at 100 µM was ~70%; the “Relative Protease Activity at 100 μM (%RFU/s ± S.D.)” value is reported as 31.8 ± 5.7 %RFU/s.
With `O=C(O)/C=C/C=C/c1ccc2c(c1)OCO2` [Piperic acid (2), Piperic acid], the “Relative Protease Activity at 100 μM (%RFU/s ± S.D.)” value is listed as 46.9 ± 1.4 %RFU/s.
For the molecule `O=C(/C=C/C=C/c1ccc2c(c1)OCO2)N1CCCCC1` [Piperine (1), Piperine], the IC50 was found to be 178.4 ± 1.2 µM, the inhibition at 100 µM was ~70% and the “Relative Protease Activity at 100 μM (%RFU/s ± S.D.)” value was 31.0 ± 2.8 %RFU/s.
